Measured values taken from publication PMC4336329 (PLoS ONE, 2015).
Screen size: about 310,000 compounds; about 14,000 (4.5%) showed an effect of 50% or more. Effects have a minus sign here. The list shows a part of the results.

molecular target: human ether-à-go-go-related gene (hERG) potassium channel (human, UniProt Q12809); experiment: primary screen, population patch clamp on CHO cells stably expressing hERG
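Also: peak tail current of the secondary pulse compared with the same well before compound.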

Chain of human ether-à-go-go-related gene (hERG) potassium channel (Q12809 whole entry, looked up): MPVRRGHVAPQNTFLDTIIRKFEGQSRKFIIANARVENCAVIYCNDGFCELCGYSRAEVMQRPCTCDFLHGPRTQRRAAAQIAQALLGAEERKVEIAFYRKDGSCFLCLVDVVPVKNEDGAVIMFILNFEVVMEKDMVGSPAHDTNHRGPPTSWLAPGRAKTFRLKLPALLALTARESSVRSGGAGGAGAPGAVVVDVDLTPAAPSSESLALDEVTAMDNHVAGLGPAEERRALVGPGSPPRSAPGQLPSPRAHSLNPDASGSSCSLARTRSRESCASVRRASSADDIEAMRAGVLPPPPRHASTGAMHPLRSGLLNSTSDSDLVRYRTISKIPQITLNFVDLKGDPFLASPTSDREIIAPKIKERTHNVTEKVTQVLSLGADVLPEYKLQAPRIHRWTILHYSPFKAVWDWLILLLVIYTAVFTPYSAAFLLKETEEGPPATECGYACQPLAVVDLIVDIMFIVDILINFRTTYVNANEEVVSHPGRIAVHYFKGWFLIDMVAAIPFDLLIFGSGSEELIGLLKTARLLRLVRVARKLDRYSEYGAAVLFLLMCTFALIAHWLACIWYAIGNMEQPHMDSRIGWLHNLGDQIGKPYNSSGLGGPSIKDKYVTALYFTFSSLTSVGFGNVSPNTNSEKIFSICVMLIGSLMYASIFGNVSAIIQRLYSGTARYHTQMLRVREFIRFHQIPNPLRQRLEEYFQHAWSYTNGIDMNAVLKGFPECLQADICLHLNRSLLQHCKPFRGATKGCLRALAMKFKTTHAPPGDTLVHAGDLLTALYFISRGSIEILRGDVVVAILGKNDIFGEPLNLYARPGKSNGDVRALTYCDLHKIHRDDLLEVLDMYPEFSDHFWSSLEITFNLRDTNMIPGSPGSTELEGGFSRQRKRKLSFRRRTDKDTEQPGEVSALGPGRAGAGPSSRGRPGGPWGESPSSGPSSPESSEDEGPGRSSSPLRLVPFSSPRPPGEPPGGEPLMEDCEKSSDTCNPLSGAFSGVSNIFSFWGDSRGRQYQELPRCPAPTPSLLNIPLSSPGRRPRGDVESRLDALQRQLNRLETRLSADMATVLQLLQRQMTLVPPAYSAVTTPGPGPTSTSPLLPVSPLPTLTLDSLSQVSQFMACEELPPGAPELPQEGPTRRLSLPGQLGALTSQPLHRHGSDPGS

| Compound | hERG current change (%, negative = inhibition) at 10uM |
| --- | --- |
| COc1cc(OC)cc(C(=O)NC(=S)Nc2ccc(N3CCCC3)cc2)c1 | -0.761% |
| COc1ccc2c(=O)c3c(=O)n(-c4ccccc4)c(-c4ccco4)nc3oc2c1 | 7.96% |
| COc1ccc(CC(=O)OCC(=O)Nc2ccc(Cl)cn2)cc1 | -8.45% |
| COC(=O)c1ccccc1NC1c2ccccc2C(=O)N1c1cccnc1 (stereo not shown) | -7.2% |
| CCOC(=O)c1ccc(NC(=O)c2c(N)n(C)c(=O)[nH]c2=O)cc1 | 8.69% |
| COc1cc(C)c(NC(=O)C(=S)NCCc2ccccc2)cc1C | 4.8% |
| CSCC[C@H](N)C(=O)N1CCC(C(=O)N[C@H](C)C(=O)NC(C)c2ccccc2)CC1 (stereo partly shown) | 6.17% |
| CC1(C)CC(N2CCN(C(c3ccccc3)c3ccccc3)CC2)=CC(=[N+]2CCCCC2)C1.[I-] | -72.1% |
| CN(CCNC(=O)c1cn(C)c2ccc(S(=O)(=O)N(C)C)cc2c1=O)CCc1ccccc1 | -27.1% |
| CCOc1cccc(SCc2noc(C(=O)NCC3CCCO3)c2C(=O)O)c1 (stereo not shown) | 32.2% |
| CCOc1ccc2ccccc2c1CNc1nnnn1CC | -9.78% |
| CC(=O)c1c(C(C)=O)c(C)n(-c2nc(-c3ccc(C)c(C)c3)c(C)s2)c1C | 25% |
| COc1ccccc1C(=O)NC(C)c1cccc2ccccc12 (stereo not shown) | 8.02% |
| CCCN1C(=O)/C(=C/c2ccccc2OCc2ccc(C(=O)O)cc2)NC1=S | 10.3% |
| CCOc1ccc(N2C(=O)CC(Sc3n[nH]c(-c4ccccc4)n3)C2=O)cc1 (stereo not shown) | -9.03% |
| N#Cc1nc(-c2ccccc2F)oc1N1CCCC1 | 9.47% |
| Cc1ccc(C(=O)NCCC(=O)N2CCC3(CC2)NCCc2[nH]cnc23)cc1C | 16.8% |
| Cc1ccc(S(=O)(=O)N2CCCC2C(=O)N(C)Cc2cccs2)cc1 (stereo not shown) | -19.9% |
| Cc1ccc(C)c2c3c([nH]c12)-c1nonc1CC3 | -1.57% |
| CCn1c(SCC(=O)NC2CCCC2)nnc1C(C)NC(=O)c1ccccc1F (stereo not shown) | 18.1% |
| O=C(Cc1csc(Nc2nc(=S)[nH]c3ccccc23)n1)N1CCN(c2cccc(Cl)c2)CC1 | 14.7% |
| O=C1c2nc3cc(-c4ccco4)[nH]n3c(=O)c2CN1C1CCCCC1 | 9.25% |

| Compound | hERG current change (%, negative = inhibition) at 10uM |
| --- | --- |
| Cc1cccc(NC(=O)Cc2coc3ccc4ccccc4c23)n1 | -20.7% |
| O=C(O)C(=O)O.O=C(c1ccccc1)c1ccc(OCC(O)CNCc2cccc(Cl)c2)cc1 (stereo not shown) | -60.3% |
| COC(=O)c1ncn(C2OC(COC(C)=O)C(OC(C)=O)C2OC(C)=O)n1 (stereo not shown) | 26.8% |
| CCN1C(=O)[C@H]2[C@@H](c3ccc(-c4ccc(Cl)c(Cl)c4)c(OC)c3)N[C@@](Cc3ccccc3)(C(=O)OC)[C@H]2C1=O.O=C(O)C(F)(F)F | 24.4% |
| Cc1ccc(/C=N/Nc2ncc(Cl)cc2Cl)s1 | 10.1% |
| COC1=C(Nc2ccc(C)cc2)C(=O)c2ccccc2C1=O | 5.87% |
| CN(CCc1ccccn1)Cc1ccc(Cl)cc1 | -53.7% |
| Cn1cccc1/C=N/NC(=O)CNc1cccc2ccccc12 | -10.6% |
| C=CCn1c(SCc2csc(-c3ccc(Cl)cc3)n2)nnc1-c1ccccc1OC | -23.5% |
| CCOc1ccc(/C=N/NC(=O)Cc2ccccc2)cc1CN1CC2CC(C1)c1cccc(=O)n1C2 (stereo not shown) | -12% |
| O=S(=O)(Nc1ccon1)c1cc(Cl)ccc1Cl | 12% |
| CCCCN(C)C(=O)C(Cc1ccccc1)NS(=O)(=O)c1ccc2c(c1)CCC(=O)N2 (stereo not shown) | -22.6% |
| Cc1nn(-c2ccc(Cl)cc2)c2[nH]c(=O)c(CNCc3ccc4c(c3)OCO4)cc12 | -70% |
| O=C(NC(=S)Nc1nc2ccc(F)cc2s1)c1ccco1 | -0.322% |
| CCOc1cc(CN2CCN(c3cccc(C(F)(F)F)c3)CC2)ccc1OC | -16.6% |
| CCOC(=O)N1CCN(c2c(NCc3ccccc3Cl)c(=O)c2=O)CC1 | 3.9% |
| N/C(=N\O)c1ccncc1 | 9.94% |
| CCC(C(=O)OCC(=O)N(CC)c1c(N)n(Cc2ccccc2)c(=O)[nH]c1=O)c1ccccc1 (stereo not shown) | 9.61% |
| O=C(Nc1ccc(Cl)cc1)c1cccc(N2C(=O)C3C4CCC(C4)C3C2=O)c1 (stereo not shown) | -7.49% |
| CC(C)c1nnc(NC(=O)c2c(O)c3cccc4c3n(c2=O)CCC4)s1 | 9.59% |
| Cc1cccc(NS(=O)(=O)c2cn(C)c(=O)n(C)c2=O)c1C | 10.8% |
| O=C(Nc1cccc(S(=O)(=O)NC2=NCCCCC2)c1)c1cc(-c2ccccc2Cl)nc2ccccc12 | 4.3% |

| Compound | hERG current change (%, negative = inhibition) at 10uM |
| --- | --- |
| COc1ccc(S(=O)(=O)N2CCN(c3ccccc3OC)CC2)cc1OC | -2.71% |
| CC(=O)c1ccc(N2CCN(C(=O)C3CCCN(S(=O)(=O)c4c(C)[nH]c(=O)[nH]c4=O)C3)CC2)cc1 (stereo not shown) | 23.4% |
| CCOC(=O)N1CCN(S(=O)(=O)c2cccc3ccc(C)nc23)CC1 | -7.34% |
| Cc1ccccc1S(=O)(=O)Nc1nc2ccccc2nc1N1CCc2ccccc2C1 | 12.9% |
| C=CCN1C(=O)C(CC(=O)NCC)SC1=Nc1cc(Cl)ccc1Cl (stereo not shown) | -2.76% |
| CCC(C)c1ccccc1NC(=O)COC(=O)c1ccc(C)c(NC(=O)c2ccco2)c1 (stereo not shown) | -8.97% |
| CCOc1ccc(NC(=O)CN2C(=O)CSc3ccc(S(=O)(=O)N4CCOCC4)cc32)cc1 | -24.9% |
| CN1CCC(=NNC(=O)c2ccc(N(Cc3ccccc3Cl)S(C)(=O)=O)cc2)CC1 | -6.81% |
| CC(/C=C\c1cccnc1)=C/C(=O)O | -1.28% |
| CCc1ccc([C@@H]2CC=C(C(=O)O)CN2S(=O)(=O)c2ccc(C)cc2)cc1 | 8.05% |
| c1ccc2nc3c(nc2c1)OCC1CCCCN31 (stereo not shown) | -14.2% |
| Cc1ccc(/C=N/N2CCN(c3ccccn3)CC2)o1 | 14.4% |
| OCCC1CN(Cc2ccc3nsnc3c2)CCN1CCc1ccccc1 (stereo not shown) | -82.2% |
| Cc1ccc2[nH]c(-c3ccccc3)c(CN(C)C)c(=O)c2c1 | -17.1% |
| CC(=O)Nc1ccc(C(=O)OCC(=O)Nc2ccc([N+](=O)[O-])cc2C(F)(F)F)cc1 | 7.22% |
| CCOC(=O)c1cc(C(C)(C)C)oc1CNC(=O)c1c(C)oc2c1CCCC2 | -18.5% |
| CC(C)CCNc1nc(N)c([N+](=O)[O-])c(N2CCCCCC2)n1 | 12.1% |
| CCOCCCNC(=O)C(NC(=O)CNC(C)=O)c1ccc(C)cc1 (stereo not shown) | -5.12% |
| CN1C(=O)C(=O)N(c2cccc(C(F)(F)F)c2)C1=O | 2.38% |
| COc1cc(/C=N/NC(=O)C(=O)NCc2cccnc2)cc(OC)c1OC | 5.17% |
| Cc1cc(C(=O)COC(=O)c2ccc(O)cc2)c(C)n1CC1COc2ccccc2O1 (stereo not shown) | -3.06% |
| COc1ccccc1NC(=S)N1CCC(c2nc3cc(C)c(C)cc3[nH]2)CC1 | -21% |

| Compound | hERG current change (%, negative = inhibition) at 10uM |
| --- | --- |
| CC(C)OC(=O)c1sc2nc(-c3ccccc3)ccc2c1N | 16.7% |
| O=C(NCCc1ccc(Cl)cc1)C1CCCN(c2ncnc3c2nc2n3CCCCC2)C1 (stereo not shown) | -57.2% |
| Cc1ccc(C(=O)NCC(=O)OCC(=O)NCCNC(=O)COC(=O)CNC(=O)c2ccc(C)cc2)cc1 | 12.3% |
| COc1ccc(OC)c(NC(=O)c2cnc3n(c2=O)CCS3)c1 | 3.23% |
| N#Cc1c(NC(=O)CSc2n[nH]c(Cc3ccccc3)n2)oc(-c2ccccc2)c1-c1ccccc1 | 6.47% |
| CCn1cc(S(=O)(=O)c2ccccc2)c(=O)c2cc(F)c(N3CCN(C)CC3)cc21 | 9.46% |
| Cc1ccc(OC(=O)c2oc3ccc(F)cc3c2C)c(C)c1 | -2.61% |
| COc1cccc(CNC(=O)c2cc(C3CC3)nc3c2cnn3C(C)C)c1 | -24.4% |
| Cc1ccc(-n2c(N)c(C(=O)NCc3cccnc3)sc2=S)cc1 | 23.5% |
| COc1ccccc1CC(=O)N1CCN(c2ccc([N+](=O)[O-])cc2)CC1 | -52% |
| COc1cc(C2Nc3ccccc3C(=O)N2NS(C)(=O)=O)c([N+](=O)[O-])cc1OC (stereo not shown) | 4.47% |
| C/C(NC1CCCCC1)=C(/C#N)C(=O)NCCN1CCOCC1 | 10.1% |
| Nc1ccc(Cl)cc1C(=O)c1ccccc1Cl | -4.91% |
| O=C(COC(=O)/C=C/c1nc2ccccc2s1)Nc1cccc(Cl)c1Cl | 7.45% |
| O=[N+]([O-])c1cccc2c(N3CCOCC3)ccnc12 | -17.6% |
| CC(C)(C)N1CC(C(=O)O)CC1=O (stereo not shown) | 28.9% |
| CC(=O)c1ccc(NC(=O)CSC2=NS(=O)(=O)c3cc(Cl)ccc3N2)cc1 | 14.7% |
| COc1ccccc1OCC(=O)Nc1ccccn1 | 8.47% |
| Cc1cc2c(c(C)nn2-c2ccccc2)c(=O)o1 | 3.22% |
